Inhibition data for 21 molecules are collected here from ChEMBL document CHEMBL5606460, “ASAP - DENV-2 NS2B-NS3 protease fluorescence single point” (2024).

The campaign covered roughly 2,000 compounds. About 110 (5.5%) showed an effect of 50% or more. Some of the results follow.

This assay addresses Genome polyprotein (dengue virus type 2) (UniProt P29990).
Where [1] appears, read: Thailand/16681/1984, Concentration 25.0 uM, Number of replicates 1.0.

A word on the inhibition: it is the drop in the measured response relative to a control, in per cent.

For the molecule `CCc1ccc(-c2nc3c(C(=O)Nc4ccc5c(c4)CNC5)cc(Cl)cc3[nH]2)cc1`, the inhibition (Thailand/16681/1984, Concentration 99.5 uM, Number of replicates 2.0, Standard deviation 0.07636874080258764 %) is 91.5% and the inhibition (Thailand/16681/1984, Concentration 295.6 uM, Number of replicates 2.0, Standard deviation 0.5542721932424032 %) is 83.9%.
In the case of `O=Cc1ccc(N2CCC(C(=O)N3CCN(c4ccc(C(F)(F)F)cc4)CC3)CC2)cc1`, under setting [1], the inhibition is 3.74%.
As for `Cc1cc(CO)c2cccc(C[C@H](NC(=O)c3cc(C(=O)O)[nH]n3)C(=O)O)c2n1`, the inhibition was 9.26% (Thailand/16681/1984, Concentration 49.95 uM, Number of replicates 2.0, Standard deviation 0.0783695359950968 %) and 19.8% (Thailand/16681/1984, Concentration 99.9 uM, Number of replicates 2.0, Standard deviation 0.8735551383744987 %).
For the molecule `CCCC[C@@H](CC)CN(C[C@@H](CC)CCCC)C(=O)C1CCN(c2ccc(C=O)cc2)CC1`, the inhibition under setting [1] was determined as 13.4%.
Take `O=C(NCc1cnn2c1CNCC2)c1cccc2ncccc12`: the inhibition is -1.67% (Thailand/16681/1984, Concentration 49.5 uM, Number of replicates 2.0, Standard deviation 0.1734798002187207 %); -0.626% (Thailand/16681/1984, Concentration 99.01 uM, Number of replicates 2.0, Standard deviation 0.036688958069278785 %); -0.526% (Thailand/16681/1984, Concentration 198.0 uM, Number of replicates 2.0, Standard deviation 0.8098743032868769 %).
For `O=C(c1nc2ccccc2[nH]1)N1CCC[C@H](n2cnc3ccccc32)C1`, the inhibition turned out to be 0.84% (Thailand/16681/1984, Concentration 49.5 uM, Number of replicates 2.0, Standard deviation 2.6115977735474685 %); 2.01% (Thailand/16681/1984, Concentration 99.01 uM, Number of replicates 2.0, Standard deviation 0.6888029106404484 %); 1.96% (Thailand/16681/1984, Concentration 198.0 uM, Number of replicates 2.0, Standard deviation 0.432466283759373 %).
For the molecule `CC(C)Nc1nc2ccc(C(=O)Nc3nnnn3-c3ccccn3)cc2[nH]1`, the inhibition was found to be 10.1% (Thailand/16681/1984, Concentration 50.0 uM, Number of replicates 2.0, Standard deviation 0.4638992347914037 %); 23.2% (Thailand/16681/1984, Concentration 100.0 uM, Number of replicates 2.0, Standard deviation 0.37502198370035894 %); 46.4% (Thailand/16681/1984, Concentration 200.0 uM, Number of replicates 2.0, Standard deviation 0.6432809425008019 %).
Regarding `Cc1cc(CO)c2cccc(Cc3cccc(C(=O)Nc4cc(C)on4)c3)c2n1`, the inhibition (Thailand/16681/1984, Concentration 49.95 uM, Number of replicates 2.0, Standard deviation 1.544383261062021 %) was 29.6% and the inhibition (Thailand/16681/1984, Concentration 99.9 uM, Number of replicates 2.0, Standard deviation 16.942938692438737 %) came to 63.9%.
Consider `Cc1ccc2ccccc2c1NC(=O)C1CCN(c2ccc(C=O)cc2)CC1`, for which the inhibition under setting [1] worked out at 17.5%.
For `O=Cc1ccc(N2CCC(C(=O)N(CC3CC3)C3CCCCC3)CC2)cc1`, the inhibition under setting [1] amounted to 14.1%.
`CN(Cc1c(Cl)cccc1Cl)C(=O)C1CCN(c2ccc(C=O)cc2)CC1`: the inhibition under setting [1] amounted to 16%.
As to `O=Cc1ccc(N2CCC(C(=O)NCCc3ccc(C(F)(F)F)cc3)CC2)cc1`, under setting [1], the inhibition is 14.7%.
In the case of `Nc1ccc(Cl)c2ncccc12`, the inhibition was -2.71% (Thailand/16681/1984, Concentration 49.95 uM, Number of replicates 2.0, Standard deviation 5.573210625462024 %) and 2.67% (Thailand/16681/1984, Concentration 99.9 uM, Number of replicates 2.0, Standard deviation 5.772283256502015 %).
With `Cc1cc(CO)c2cccc(CC(=O)NCc3ccc(C(N)=O)cc3)c2n1`, the inhibition by setting is: (Thailand/16681/1984, Concentration 49.95 uM, Number of replicates 2.0, Standard deviation 0.824600056542549 %) -4.43%; (Thailand/16681/1984, Concentration 99.9 uM, Number of replicates 2.0, Standard deviation 0.5940444883081935 %) 2.19%.
For `Cc1cc(N)cc(CNC(=O)c2cccc(Cc3cccc4c(CO)cc(C)nc34)c2)c1`, the inhibition by setting is: (Thailand/16681/1984, Concentration 49.95 uM, Number of replicates 2.0, Standard deviation 0.2659014326821377 %) 29.9%; (Thailand/16681/1984, Concentration 99.9 uM, Number of replicates 2.0, Standard deviation 1.3431613936290656 %) 54.9%.
Consider `CCC(=O)Nc1ccc(S(=O)(=O)Nc2ccc(Cl)cc2C(=O)NC)cc1`, for which the inhibition is -3.39% (Thailand/16681/1984, Concentration 49.5 uM, Number of replicates 2.0, Standard deviation 0.19261632390400107 %); -1.85% (Thailand/16681/1984, Concentration 99.01 uM, Number of replicates 2.0, Standard deviation 0.9168343884111835 %); 0.272% (Thailand/16681/1984, Concentration 198.0 uM, Number of replicates 2.0, Standard deviation 0.6069319935951727 %).
As for `Cc1cc(CO)c2cccc(NC(=O)c3ccc(N)nn3)c2n1`, the inhibition (Thailand/16681/1984, Concentration 49.95 uM, Number of replicates 2.0, Standard deviation 1.176901179972867 %) stood at 11% and the inhibition (Thailand/16681/1984, Concentration 99.9 uM, Number of replicates 2.0, Standard deviation 1.886285239678155 %) was determined as 19.5%.
As to `COc1cc(F)ccc1CNC(=O)C1CCN(c2ccc(C=O)cc2)CC1`, the inhibition under setting [1] was 5.8%.
As to `Cc1c(C(=O)N[C@@H](c2c[nH]nn2)C(C)C)ccc(O)c1NC(=O)c1ccncc1F`, the inhibition is -2% (Thailand/16681/1984, Concentration 49.5 uM, Number of replicates 2.0, Standard deviation 0.10939610711378549 %); -1.36% (Thailand/16681/1984, Concentration 99.01 uM, Number of replicates 2.0, Standard deviation 1.03735768500033 %); 0.539% (Thailand/16681/1984, Concentration 198.0 uM, Number of replicates 2.0, Standard deviation 1.46514535247363 %).
As for `CNC(=O)c1cc(Cl)ccc1NS(=O)(=O)Cc1cccc(C#N)c1`, the inhibition was -0.543% (Thailand/16681/1984, Concentration 49.5 uM, Number of replicates 2.0, Standard deviation 0.29988051697956003 %); 0.566% (Thailand/16681/1984, Concentration 99.01 uM, Number of replicates 2.0, Standard deviation 0.3065657447232367 %); 1.62% (Thailand/16681/1984, Concentration 198.0 uM, Number of replicates 2.0, Standard deviation 0.6274569925210838 %).
With `N[C@H]1C[C@H](CNC(=O)[C@@H](NC(=O)OCc2ccccc2)c2ccc(OCc3ccccc3)cc2)C1`, the inhibition runs as follows: (Thailand/16681/1984, Concentration 49.5 uM, Number of replicates 2.0, Standard deviation 4.035148717327061 %) -7.81%; (Thailand/16681/1984, Concentration 99.01 uM, Number of replicates 2.0, Standard deviation 3.6381547385610027 %) -5.23%; (Thailand/16681/1984, Concentration 198.0 uM, Number of replicates 2.0, Standard deviation 2.7035240962471856 %) 9.08%.
